# In patent publication US6653442B1, “Protegrins” (priority 1993, dated 2003):
# Bridge positions count the residues as written; N and C are the ends. Ends that are not written are not given here. Peptide text beside a SMILES is read from it.
# How the values were obtained:
# [1] = test system: C. trachomatis serovar L2 (L2/434 Bu); assay: Chlamydial culture system in McCoy cells; conditions: for effectiveness against Chlamydia: 25 μg, two hours preincubation
# [2] = test system: HSV-2 G and a pool of ten clinical HSV 2 isolates; assay: Herpes simplex virus CPE assay, HSV-2
# [3] = test system: HSV 1 MacIntyre strain, a pool of ten clinical HSV 1 isolates; assay: Herpes simplex virus CPE assay, HSV-1
molecule,measurement,setting,value
"CC[C@H](C)[C@@H]1NC(=O)[C@H](CCCNC(=N)N)NC(=O)[C@@H]2CSSC[C@@H]3NC(=O)[C@H](C)NC(=O)[C@@H](NC(=O)[C@@H](NC(=O)[C@@H](N)C(C)C)C(C)C)CSSC[C@@H](C(=O)N[C@@H](CCCNC(=N)N)C(=O)N[C@@H](CCCNC(=N)N)C(=O)O)NC(=O)[C@H](CSSC[C@H](NC(=O)[C@H](CC(C)C)NC(=O)[C@H](C)NC(=O)[C@H](CCCNC(=N)N)NC(=O)[C@H](CCCNC(=N)N)NC3=O)C(=O)N[C@@H](CC(C)C)C(=O)N3CCC[C@H]3C(=O)N[C@@H](CCCNC(=N)N)C(=O)N[C@@H](CCC(=O)O)C(=O)N[C@@H](CCCNC(=N)N)C(=O)N[C@@H](CCCNC(=N)N)C(=O)N[C@@H](C)C(=O)NCC(=O)N[C@@H](Cc3ccccc3)C(=O)N2)NC(=O)[C@H](CC(C)C)NC(=O)[C@@H]2CCCN2C(=O)[C@H](Cc2c[nH]cn2)NC(=O)[C@H]([C@@H](C)CC)NC(=O)[C@H](CCCNC(=N)N)NC(=O)CNC(=O)[C@H](CCCNC(=N)N)NC1=O [NP-1, reference compound] (H-VVCACRRALCLPRERRAGFCRIRGRIHPLCCRR-OH; disulfide 3-31, 5-20, 10-30; N-terminus and C-terminus assumed)",protective effect against chlamydial inclusions,"[1]; initial assays, amount not stated",lesser protective effects
"CC(C)C[C@H](NC(=O)[C@H](CCCNC(=N)N)NC(=O)CNC(=O)CNC(=O)[C@@H](N)CCCNC(=N)N)C(=O)N[C@H]1CSSC[C@@H](C(=O)N[C@H](C(=O)NCC(=O)N[C@@H](CCCNC(=N)N)C(N)=O)C(C)C)NC(=O)[C@H](C(C)C)NC(=O)[C@@H]2CSSC[C@H](NC(=O)[C@H](Cc3ccc(O)cc3)NC1=O)C(=O)N[C@@H](CCCNC(=N)N)C(=O)N[C@@H](CCCNC(=N)N)C(=O)N[C@@H](CCCNC(=N)N)C(=O)N[C@@H](Cc1ccccc1)C(=O)N2 [PG-1, R-G-G-R-L-C-Y-C-R-R-R-F-C-V-C-V-G-R]",Activity against human STD pathogens: Herpes simplex type 2,[2],Moderately
same,cytopathic effect (CPE) by HSV-2 G,"[2]; delayed peptide addition format, 35 μg/ml and 50 μg/ml",completely prevented CPE
same,protection against the clinical HSV-2 pool,"[2]; delayed peptide addition format, both concentrations",fully protected
same,cytopathic effect (CPE) by HSV-2 G,"[2]; direct neutralization format, W138 and CCL57 cells, 50 μg/ml and 25 μg/ml",completely prevented
same,Activity against human STD pathogens: Herpes simplex type 1,[3],Inactive
same,protection against HSV-1 CPE,"[3]; direct neutralization format, 50 μg/ml and 25 μg/ml, 4 + CPE",no protection
same,Activity against human STD pathogens: Chlamydia trachomatis,[1],Active
"HNP-2: native human defensin used as control (CYCRIPACIAGERRYGTCIYQGRLWAFCC; ends and bridges not checked; cysteine pairing not given here; UniProt P59665 66-94, looked up) [reference compound]",reduction of number of inclusions from untreated controls,[1]; 25 μg added one hour into the 48-hour culture period,completely ineffective
same,effectiveness against Chlamydia,[1]; with 10% FBS,only marginally effective
same,effectiveness against Chlamydia,[1]; without serum,reasonably effective
